We go through 45 compounds from publication PMC4336329 (PLoS ONE, 2015).

The structures appear in SMILES notation. Hit rate of the full screen: of about 310,000 compounds, about 2,200 (0.71%) showed an effect of 50% or more. Effects have a minus sign here. The list shows a part of the results.

The test deals with human ether-à-go-go-related gene (hERG) potassium channel (human, UniProt Q12809). The experiment in a line: primary screen, population patch clamp on CHO cells stably expressing hERG.
human ether-à-go-go-related gene (hERG) potassium channel, sequence (Q12809 whole entry, looked up): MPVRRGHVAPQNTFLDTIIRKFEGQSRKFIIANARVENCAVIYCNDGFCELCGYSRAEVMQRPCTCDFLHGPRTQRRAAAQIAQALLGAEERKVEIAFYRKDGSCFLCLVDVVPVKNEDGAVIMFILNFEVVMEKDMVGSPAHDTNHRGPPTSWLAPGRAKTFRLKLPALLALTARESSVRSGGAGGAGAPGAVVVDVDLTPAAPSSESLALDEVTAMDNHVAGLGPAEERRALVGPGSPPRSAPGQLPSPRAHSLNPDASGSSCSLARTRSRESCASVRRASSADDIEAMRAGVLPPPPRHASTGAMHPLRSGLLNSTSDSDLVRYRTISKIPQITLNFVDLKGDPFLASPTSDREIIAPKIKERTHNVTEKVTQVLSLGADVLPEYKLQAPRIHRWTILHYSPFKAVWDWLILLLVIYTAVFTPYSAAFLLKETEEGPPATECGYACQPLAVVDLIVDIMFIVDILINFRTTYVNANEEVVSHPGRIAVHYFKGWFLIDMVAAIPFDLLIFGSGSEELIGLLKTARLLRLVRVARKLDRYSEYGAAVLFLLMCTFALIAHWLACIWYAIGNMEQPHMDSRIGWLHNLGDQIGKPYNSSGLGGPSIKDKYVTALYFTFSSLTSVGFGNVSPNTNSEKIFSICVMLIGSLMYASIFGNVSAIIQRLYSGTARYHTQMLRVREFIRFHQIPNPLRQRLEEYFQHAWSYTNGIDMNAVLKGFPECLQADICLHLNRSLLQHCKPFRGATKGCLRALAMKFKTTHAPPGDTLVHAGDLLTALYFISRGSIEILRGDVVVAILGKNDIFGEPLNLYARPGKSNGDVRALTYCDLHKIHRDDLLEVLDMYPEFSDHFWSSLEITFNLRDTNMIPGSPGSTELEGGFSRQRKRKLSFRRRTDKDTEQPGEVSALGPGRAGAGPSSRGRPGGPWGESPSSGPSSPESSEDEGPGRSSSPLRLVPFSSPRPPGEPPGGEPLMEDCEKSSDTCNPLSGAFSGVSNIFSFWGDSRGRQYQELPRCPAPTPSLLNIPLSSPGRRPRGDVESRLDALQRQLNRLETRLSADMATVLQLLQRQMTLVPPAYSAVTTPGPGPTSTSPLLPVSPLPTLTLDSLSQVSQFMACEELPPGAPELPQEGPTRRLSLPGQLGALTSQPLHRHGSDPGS
With `Cc1oc(S(=O)(=O)N2CCCCC2)cc1NC(=O)Nc1ccc(F)cc1`, the “hERG current change (%, negative = inhibition) at 1uM” value amounted to 9.12%.
Next, `Cc1ccccc1NC(=O)c1ccc([N+](=O)[O-])o1`: 9.82%; `CCOc1ccc(C(C(=O)NC2CCCC2)N(Cc2ccccc2)C(=O)c2nsc(Cl)c2Cl)cc1` (stereo not drawn): -2.29%; `Cl.Cn1nnnc1SCCNCc1cccnc1`: -1.17%.
Consider `COC(=O)c1ccc(NCC(=O)c2ccccc2)cc1`, for which the “hERG current change (%, negative = inhibition) at 1uM” value was determined as 7.17%.
The same measure for `O=C(C1=COCCO1)N1CCN(c2nc3ccc([N+](=O)[O-])cc3s2)CC1`: 1.08%; for `Cc1ccc(OCCCC(=O)Nc2nc3ccccc3[nH]2)cc1`: 11.9%.
The same measure for `C=CCn1c(SCC(=O)NCc2ccco2)nc2sc3c(c2c1=O)CCCC3`: 4.79%; for `CC(=O)N1CCCc2cc(S(=O)(=O)Nc3ccccc3C)ccc21`: 24.1%.
Next, `c1cncc(C(c2nnnn2C2CCCC2)N2CCCC2)c1` (stereo not drawn): 1.07%.
In the case of `CCCN1CCN(CC(O)COC(c2ccc(OC)cc2)c2ccc(OC)cc2)CC1.O=C(O)C(=O)O` (stereo not drawn), the “hERG current change (%, negative = inhibition) at 1uM” value was determined as 5.48%.
In the case of `CC1(C)CC(=O)C(C2C3=C(CC(C)(C)CC3=O)Oc3ccccc32)C(=O)C1` (stereo not drawn), the “hERG current change (%, negative = inhibition) at 1uM” value was 14.2%.
In the case of `Cc1ccc(C2=NOC(=O)/C2=C\c2ccccc2)cc1`, the “hERG current change (%, negative = inhibition) at 1uM” value worked out at 12.1%.
The same measure for `CC(=O)Nc1ccc(C2=CC(=O)C[C@H](c3ccc(Cl)cc3)C2)cc1`: 9.52%; for `COc1ccc(-c2cc(C)no2)cc1S(=O)(=O)NCC(C)c1ccccc1` (stereo not drawn): 8.4%.
The same measure for `CN(C)/C=N/c1cc(=O)n(C)c(=O)n1Cc1ccccc1`: 14.5%; for `Cc1ccccc1C(=O)Nc1ccccc1-n1cccc1`: 12.3%.
For `Cc1ccccc1C(=O)NNC(=O)c1ccc2nc[nH]c2c1`, the “hERG current change (%, negative = inhibition) at 1uM” value is given as 15.8%.
Next, `COc1nc(N/N=C/c2ccccc2F)nc(N2CCCCC2)n1`: -5.82%; `COc1ccccc1N1CCN(C2CCC(C)CC2)CC1` (stereo not drawn): 14.4%.
The same measure for `O=C(CSCc1cccc(Br)c1)N1CCOCC1`: 6.93%; for `COc1cc(NC(=O)N[C@@H](CCSC)C(=O)O)cc(OC)c1`: 8.19%.
Regarding `O=C(Nc1cccc(Cl)c1)N1CCN2C(=O)c3ccccc3C12c1ccccc1` (stereo not drawn), the “hERG current change (%, negative = inhibition) at 1uM” value came out at 7.7%.
Consider `COc1ccc(NC(=O)COc2cccc3c2CCN(Cc2cccnc2)C3=O)c(OC)c1`, for which the “hERG current change (%, negative = inhibition) at 1uM” value is on record as -4.67%.
On to `COc1ccc(NC(=O)C2CCCN2C(=O)NC2CCCCC2)cc1OC` (stereo not drawn), for which the “hERG current change (%, negative = inhibition) at 1uM” value is on record as 4.54%.
As to `COc1ccc(C(c2nnnn2Cc2ccccc2)N2CCN(c3ccccc3)CC2)cc1.Cl` (stereo not drawn), the “hERG current change (%, negative = inhibition) at 1uM” value is given as 9.8%.
Next, `CC(NC(=O)c1cccc(C(F)(F)F)c1)C(c1ccccc1)N1CCOCC1` (stereo not drawn): 8.37%.
Next, `CN(C)c1ccc(/C=C2\N=C(c3ccc(Cl)c([N+](=O)[O-])c3)NC2=O)cc1`: 12.4%; `CCCCNC(=O)N1c2ccccc2CC1C` (stereo not drawn): 12.9%; `Cc1ccc(C(=O)NCC(=O)N2CCC3(CC2)NCCc2[nH]cnc23)cc1C`: 13.4%.
The same measure for `CCOC(=O)c1ccc(NS(=O)(=O)c2ccc(SC)cc2)cc1`: 10.5%; for `O=C(COc1ccc(Cl)cc1Cl)NN1C(=O)C2C3C=CC([C@@H]2C1=O)C31CC1` (stereo partly drawn): 15%.
`O=C(Nc1ccccc1Cl)C(=O)c1cn(CC(=O)N2CCOCC2)c2ccccc12`: the “hERG current change (%, negative = inhibition) at 1uM” value was found to be 4.51%.
The same measure for `O=C(O)c1ccccc1C(=O)OCCCCOC(=O)c1ccccc1C(=O)O`: 2.08%; for `CCOCc1cc(C2NC(=O)NC(C)=C2C(=O)OCC)ccc1OC` (stereo not drawn): 1.25%; for `CCOC(=O)C1(Cc2ccccc2C(F)(F)F)CCN(C2CCN(C(C)=O)CC2)CC1`: -1.48%.
In the case of `Cc1ccc(CNC(=O)COC(=O)c2nc(-c3ccccc3)oc2C)cc1`, the “hERG current change (%, negative = inhibition) at 1uM” value is 3.64%.
Regarding `CC(=O)Nc1sc(NC(=O)c2ccccc2)nc1-c1cccs1`, the “hERG current change (%, negative = inhibition) at 1uM” value is reported as 11%.
In the case of `CC(=O)N1c2ccccc2C2CCCC[C@H]21` (stereo partly drawn), the “hERG current change (%, negative = inhibition) at 1uM” value came out at 17.7%.
Next, `O=C(Oc1ccc(OC(=O)N2CCCCC2)cc1)N1CCCCC1`: 8.84%; `C=CCOc1ccc(/C=C/C(=O)OCC(=O)NC2CCCCCC2)cc1`: -5.36%; `Cc1cc(C)nc(CCNC(=O)c2cc(COc3c(F)cccc3F)on2)n1`: 9.91%.
As to `CCOC(=O)N1CCC(N(CCN(C)C)C(=S)Nc2cccc(C)c2)CC1`, the “hERG current change (%, negative = inhibition) at 1uM” value turned out to be 12.6%.
On to `CC(=O)Nc1nnc(SCC(=O)NC(C)(C)C)s1`, for which the “hERG current change (%, negative = inhibition) at 1uM” value came out at 4.5%.
As for `CC(C)N(C(=O)CSc1n[nH]c(=O)n1CCc1ccccc1)C(C)C`, the “hERG current change (%, negative = inhibition) at 1uM” value is 9.05%.
